Experimental data taken from the supplement of paper PMC4967469.
Lines with a small IC50 respond at low doses; fits outside the tested doses are given as limits. AUC sums up the same curve from the lowest dose to the 256-fold higher top dose; it is 1 without any effect and falls as sensitivity rises. For part of these data: A top dose marked as inferred was derived from the fitted curves, not read from the paper. For part of these data: Drugs with an entry number were screened twice under separate entries, and the two screens often disagree.

What was measured:
Assay in all cases: Viability of human cancer cell lines after 72 h of drug (GDSC screen)
Zibotentan = compound: COc1nc(C)cnc1NS(=O)(=O)c1cccnc1-c1ccc(-c2nnco2)cc1 [Zibotentan]; details: top dose 20 µM; top dose inferred
Method: (§1)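 Human cancer cell lines in 384-well plates, medium with 10% serum, drug for 72 h over a 256-fold dose range (nine 2-fold or five 4-fold steps up to the top dose). Adherent lines were fixed and stained with the nucleic acid dye Syto60, suspension lines read with resazurin; signal relative to control wells, capped at 0 and 100%. One two-parameter sigmoid per drug and line, fitted in a mixed model over all curves with the slope shared within a line.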

Cytarabine = compound: Nc1ccn([C@@H]2O[C@H](CO)[C@@H](O)[C@@H]2O)c(=O)n1 [Cytarabine]; details: top dose 2 µM
Method: as §1

CHIR-99021 = compound: Cc1cnc(-c2cnc(NCCNc3ccc(C#N)cn3)nc2-c2ccc(Cl)cc2Cl)[nH]1 [CHIR-99021]
Method: as §1

ABT-869 = compound: Cc1ccc(F)c(NC(=O)Nc2ccc(-c3cccc4[nH]nc(N)c34)cc2)c1 [ABT-869]; details: top dose 1.024 µM; top dose inferred
Method: as §1

QL-X-138 = compound: C=CC(=O)Nc1cc(-n2c(=O)ccc3cnc4ccc(-c5cn[nH]c5)cc4c32)ccc1C [QL-X-138]; details: top dose 10.24 µM; top dose inferred
Method: as §1

CP466722 = compound: COc1cc2ncnc(-n3nc(-c4ccccn4)nc3N)c2cc1OC [CP466722]; details: top dose 16 µM; top dose inferred
Method: as §1

GSK269962A = compound: CCn1c(-c2nonc2N)nc2cnc(Oc3cccc(NC(=O)c4ccc(OCCN5CCOCC5)cc4)c3)cc21 [GSK269962A]; details: top dose inferred
Method: as §1

ABT-888 = compound: C[C@]1(c2nc3c(C(N)=O)cccc3[nH]2)CCCN1 [ABT-888]; details: top dose 5 µM; top dose inferred
Method: as §1

CMK = compound: Cc1ccc(-c2c(C(=O)CCl)n(CCCO)c3ncnc(N)c23)cc1 [CMK]; details: top dose 4 µM; top dose inferred
Method: as §1

Thapsigargin = compound: C/C=C(/C)C(=O)O[C@H]1C(C)=C2[C@H]([C@@H]1OC(=O)CCCCCCC)[C@@](C)(OC(C)=O)C[C@H](OC(=O)CCC)[C@@]1(O)[C@H]2OC(=O)[C@@]1(C)O [Thapsigargin]; details: top dose 0.512 µM; top dose inferred
Method: as §1

KU-55933 = compound: O=c1cc(-c2cccc3c2Sc2ccccc2S3)oc(N2CCOCC2)c1 [KU-55933]; details: top dose 10 µM
Method: as §1

MPS-1-IN-1 = compound: COc1cc(N2CCC(O)CC2)ccc1Nc1cc(Nc2ccccc2S(=O)(=O)C(C)C)c2cc[nH]c2n1 [MPS-1-IN-1]; details: top dose 20 µM; top dose inferred
Method: as §1

(5Z)-7-Oxozeaenol = compound: COc1cc(O)c2c(c1)/C=C/C[C@H](O)[C@H](O)C(=O)/C=C\C[C@H](C)OC2=O [(5Z)-7-Oxozeaenol]; details: top dose 10 µM; top dose inferred
Method: as §1

[1] = top dose 2.56 µM, screen: GDSC drug entry 154
[2] = top dose 10 µM, screen: GDSC drug entry 1241, top dose inferred
[3] = top dose 2.5 µM, screen: GDSC drug entry 127
[4] = top dose 5 µM, screen: GDSC drug entry 1192

Cell Line	AUC (Zibotentan)	IC50 (Zibotentan) [µM]	AUC (Cytarabine)	IC50 (Cytarabine) [µM]	AUC (CHIR-99021; [1])	IC50 (CHIR-99021; [1]) [µM]	AUC (CHIR-99021; [2])	IC50 (CHIR-99021; [2]) [µM]	AUC (ABT-869)	IC50 (ABT-869) [µM]	AUC (QL-X-138)	IC50 (QL-X-138) [µM]	AUC (CP466722)	IC50 (CP466722) [µM]	AUC (GSK269962A; [3])	IC50 (GSK269962A; [3]) [µM]	AUC (GSK269962A; [4])	IC50 (GSK269962A; [4]) [µM]	AUC (ABT-888)	IC50 (ABT-888) [µM]	AUC (CMK)	IC50 (CMK) [µM]	AUC (Thapsigargin)	IC50 (Thapsigargin) [µM]	AUC (KU-55933)	IC50 (KU-55933) [µM]	AUC (MPS-1-IN-1)	IC50 (MPS-1-IN-1) [µM]	AUC ((5Z)-7-Oxozeaenol)	IC50 ((5Z)-7-Oxozeaenol) [µM]
DMS-79 (small cell lung carcinoma, suspension)	0.953	> 20	0.987	> 2	0.987	> 2.56	0.986	> 10	0.973	> 1.02	0.981	> 10.2	0.93	> 16	0.982	> 2.5	0.906	> 5	0.987	> 5	0.96	> 4	0.95	> 0.512	0.986	> 10	0.986	> 20	0.966	> 10
DMS-114 (small cell lung carcinoma, adherent)	0.985	> 20	0.777	0.926	0.98	> 2.56	0.971	> 10	0.985	> 1.02	0.574	1.06	0.907	> 16	0.975	> 2.5	0.973	> 5	0.985	> 5	0.984	> 4	0.871	> 0.512	0.979	> 10	0.926	> 20	0.684	2.22
DND-41 (T-cell leukaemia, suspension)	0.98	> 20	0.835	1.1	0.98	> 2.56	0.923	> 10	0.984	> 1.02	0.477	0.559	0.664	2.69	0.97	> 2.5	0.864	3.55	0.989	> 5	0.831	2.13	0.261	0.00736	0.949	> 10	0.842	11.7	0.585	1.03
DSH1 (bladder, adherent)	0.989	> 20	0.91	> 2	0.947	> 2.56	0.988	> 10	0.982	> 1.02	0.873	9.13	0.859	12.3	0.883	2.48	0.903	> 5	0.988	> 5	0.983	> 4	0.324	0.0106	0.988	> 10	0.975	> 20	0.925	> 10
EB-3 (Burkitt lymphoma, suspension)	0.949	> 20	0.98	> 2	0.984	> 2.56	0.926	> 10	0.98	> 1.02	0.38	0.283	0.695	3.91	0.98	> 2.5	0.838	4.19	0.983	> 5	0.792	2.14	0.464	0.0251	0.984	> 10	0.84	17.2	0.799	5.72
EC-GI-10 (oesophagus, adherent)	0.988	> 20	0.723	0.532	0.989	> 2.56	0.986	> 10	0.989	> 1.02	0.989	> 10.2	0.989	> 16	0.974	> 2.5	0.926	> 5	0.989	> 5	0.986	> 4	0.788	0.222	0.974	> 10	0.967	> 20	0.71	2.43
EJM (lymphoid neoplasm, semi-adherent)	0.984	> 20	0.975	> 2	0.992	> 2.56	0.982	> 10	0.992	> 1.02	0.536	0.79	0.723	3.8	0.985	> 2.5	0.962	> 5	0.992	> 5	0.992	> 4	0.185	0.00452	0.973	> 10	0.859	12.6	0.822	4.68
ES1 (Ewing sarcoma, adherent)	0.985	> 20	0.275	0.029	0.986	> 2.56	0.815	5.37	0.985	> 1.02	0.351	0.249	0.674	3.03	0.913	> 2.5	0.919	> 5	0.972	> 5	0.95	> 4	0.074	< 0.002	0.982	> 10	0.598	2.3	0.72	2.6
ES5 (Ewing sarcoma, adherent)	0.982	> 20	0.577	0.21	0.983	> 2.56	0.926	> 10	0.979	> 1.02	0.44	0.429	0.697	3.93	0.922	> 2.5	0.919	> 5	0.957	> 5	0.965	> 4	0.545	0.0433	0.93	> 10	0.554	1.8	0.752	3.75
